Assay results taken from PubChem BioAssay AID1345083 (National Center for Advancing Translational Sciences (NCATS), 2018).
“And” between values parts separate entries of the source, which are not always exact repeats. Equal entries are not always repeated. Out of some 94,000 compounds screened, about 6,200 (6.6%) were called active. Inconclusive means that the source gave no clear call. Such entries were picked first, then a sample of the others. The call rests on the fitted dose curve; in most records, active means well fitted inhibition curve with a large enough effect; inconclusive means small, poorly fitted or top-dose-only effect; inactive means flat fitted curve, though single readings scatter. Potencies of inconclusive entries are doubtful fits and often do not repeat.

Assay: Cytotoxic Profiling in HEK 293 Cell Line of Diverse Libraries Using Quantitative High-Throughput Screening; further: nearly all actives have a fitted effect of over 60% in size
Conditions: HEK 293 viability, ATP luminescence (CellTiter-Glo), 48-72 h; activity change, negative = cytotoxicity: at 115 µM (top of the series) unless noted; series mostly up to 115 µM
Method in brief: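 Cells seeded first (HEK 293, 250 cells/well), then compound added by pintool. Incubation ran 48 or 72 hr at 37 degree Celsius. CellTiter-Glo was added and luminescence imaged after 10 min at room temperature.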
On the % scale 0 is the no-effect control and ±100 the full control effect; potency means the concentration at half of the fitted maximal effect; tags describe the fitted curve by direction and shape.

Which Potency does the source give for COCCNc1ncc(-c2ccc(O)c(OC)c2)c2c1OCC2 here?
Its Potency is inconclusive: 63.1 µM [inhibitor, partial curve].

With COC[C@@]12CN(c3ccccn3)C[C@@H]1C(C)(C)COc1ccc(OC)cc12 as the compound, how does the Potency read?
Its Potency is inconclusive: 79.4 µM [inhibitor, partial curve, poor fit].

Which Potency does the source give for O=C(Nc1nccs1)[C@@H]1C[C@@H](c2ccc(F)cc2)N(Cc2ccccc2)C1 here?
The Potency was active: 39.8 µM.

Which Potency does the source give for O=C(C1CCN([S+](=O)([O-])c2cccc(C(F)(F)F)c2)CC1)N1CCC(N2Cc3cccn3C2=O)CC1 here?
Its Potency is inconclusive: 50.1 µM [inhibitor, partial curve, poor fit].

Which “activity change, negative = cytotoxicity” value does the source give for CN(C)C(=O)N1CCCN(c2ccc3nnc(C4CC4)n3n2)CC1 here?
The value was inactive: -14.1% [at 172 µM].

Which Potency does the source give for c1ccc(-c2cn3c(n2)CO[C@@H](CNCc2cccs2)C3)cc1 here?
Its Potency is inconclusive: 112 µM [inhibitor, partial curve].

Which Potency does the source give for CNC(=O)[C@H]1C[C@H](Oc2ccccc2)CN1Cc1ccc(F)c(F)c1 here?
The Potency was inconclusive: 89.1 µM [inhibitor, single point].

With COC1CN(c2cccc(F)c2)C12CCN(C(=O)c1ccc3ccccc3n1)CC2 (stereo not given) as the compound, how does the Potency read?
The Potency was inconclusive: 56.2 µM [inhibitor, partial curve, poor fit].

For Cc1nc(C2CC23CCN(S(=O)(=O)c2cccc(F)c2)CC3)no1 (stereo not given), which “activity change, negative = cytotoxicity” value is on record?
Its value is inactive: -7.04%.

With Cc1ncsc1C(=O)N1CCCn2nc(C)c(-c3ccccc3-c3ccccc3)c21 as the compound, how does the Potency read?
Its Potency is inconclusive: 126 µM [inhibitor, single point].

For CCOCCOC1CCN(S(=O)(=O)c2cn(C)cn2)CC1, which “activity change, negative = cytotoxicity” value is on record?
Its value is inactive: -2.59%.

For O=C(NC1CCCC1)N1CCCC1C(=O)N1CCCC1c1nc2ccncc2[nH]1 (stereo not given), which “outcome” value is on record?
Its value is “inactive”.

Which Potency does the source give for O=C(NCc1ccc(N2CCCC2)cc1)C1CCCN(c2cnn(Cc3ccccc3)c(=O)c2)C1 (stereo not given) here?
Its Potency is inconclusive: 79.4 µM [inhibitor, partial curve].

With O=C(Cn1ccnc1)N1CCCCC1c1noc(COc2ccc(F)cc2)n1 (stereo not given) as the compound, how does the Potency read?
The Potency was inconclusive: 50.1 µM [inhibitor, partial curve, poor fit].

With COCCN1CCC2(CCC1=O)CCN(C(=O)Nc1c(C)cccc1C)CC2 as the compound, how does the “activity change, negative = cytotoxicity” value read?
Its value is inactive: 4.3%.

For O=C(NCc1ccccc1)c1ccc2nnc(-c3cccc(C(F)(F)F)c3)n2c1, which Potency is on record?
Its Potency is active: 35.5 µM.

For O=C(c1ccc(-c2cncnc2)cc1)N1CCC(N[S+](=O)([O-])c2cccs2)CC1, which “activity change, negative = cytotoxicity” value is on record?
Its value is inactive: -4.37%.

Which Potency does the source give for O=C1C(N2CCN(S(=O)(=O)c3ccc(Cl)s3)CC2)CCN1Cc1cccnc1 (stereo not given) here?
The Potency was inconclusive: 35.5 µM [inhibitor, partial curve, poor fit].

With Cc1ccc(Nc2ccnc(N3CCC(C(=O)Nc4ccccc4Cl)CC3)n2)cc1 as the compound, how does the Potency read?
Its Potency is inconclusive: 56.2 µM [inhibitor, partial curve, poor fit].

For O=C(c1ccccc1F)N1CCN(c2nccc(Nc3ccccc3F)n2)CC1, which Potency is on record?
Its Potency is active: 35.5 µM.

Which Potency does the source give for O=C(COc1ccccc1)N1CCCCC1c1nc(CCOCC2CCOCC2)no1 (stereo not given) here?
Its Potency is inconclusive: 79.4 µM [inhibitor, partial curve].

Which “activity change, negative = cytotoxicity” value does the source give for CN1C[C@@H](NC(=O)c2ccccn2)C[C@H]1c1nc(-c2cccnc2)no1 here?
Its value is inactive: 1.52% [at 172 µM].

Which Potency does the source give for COc1ccccc1NC(=O)N1CCc2cc(OC)c(OC)cc2C1CNC(=O)NC(C)(C)C (stereo not given) here?
The Potency was inconclusive: 89.1 µM [inhibitor, single point].

Which Potency does the source give for CN(Cc1ccccc1)C(=O)c1ccc2c(c1)NC(C)(COc1cccnc1)CO2 (stereo not given) here?
The Potency was inconclusive: 63.1 µM [inhibitor, partial curve, poor fit].

Which Potency does the source give for CCCOc1cc(C)c2c(c1C)C[C@H]([C@H](C)C(=O)NCCN1CCOCC1)CC2 here?
Its Potency is inconclusive: 100 µM [inhibitor, partial curve].

Which “activity change, negative = cytotoxicity” value does the source give for O=C(C1CC1)N1CCC(CCOc2ccccc2)C1 (stereo not given) here?
Its value is inactive: -34.7%.

Which Potency does the source give for CNC(=O)c1cccc(-c2cnc(Nc3ccc(F)c(Cl)c3)c3c2CCO3)c1 here?
The Potency was active: 28.2 µM.

For Cc1ccccc1CNC(=O)c1nn(CC2CC2)c2c1CNCC2, which Potency is on record?
The Potency was inconclusive: 50.1 µM [inhibitor, partial curve, poor fit].

With CC(C)CCC(=O)N1C[C@@H](CO)[C@H](c2ccccn2)C1 as the compound, how does the “outcome” value read?
Its value is “inactive”.

For CCNC(=O)N1CC(Oc2ccc(-c3nc(C)no3)cc2)C1, which Potency is on record?
Its Potency is inconclusive: 79.4 µM [inhibitor, partial curve].

Which Potency does the source give for COc1cccc(N2CCN(C(=O)C3CCCN(c4cnc5nccnc5c4)C3)CC2)c1 (stereo not given) here?
Its Potency is active: 39.8 µM.

Which Potency does the source give for O=C1CC2CCCC(C1)N2C(=O)c1ccc(Cl)cc1 here?
Its Potency is inconclusive: 10 µM [inhibitor, full curve, poor fit].

With O=C(c1ccc(F)c(F)c1)N1CCCN(c2cc(-c3ccc(F)cc3)[nH]n2)CC1 as the compound, how does the Potency read?
Its Potency is inconclusive: 89.1 µM [inhibitor, partial curve, poor fit].

Which Potency does the source give for O=C(c1ccc(Cl)cc1)N1CC2(CCCN2Cc2ccc(C(F)(F)F)cc2)Cc2ccccc21 (stereo not given) here?
Its Potency is inconclusive: 20 µM [inhibitor, full curve, poor fit].

For C[C@@H]1C(=O)O[C@H]2[C@H]1CC[C@@]1(C)Cc3sc(NS(=O)(=O)Cc4ccccc4)nc3[C@@H](C)[C@H]21, which Potency is on record?
Its Potency is inconclusive: 7.94 µM [inhibitor, full curve].

For O=C(NC1CCCC1)N1CC(Oc2ccccc2-c2nc(-c3ccccc3)no2)C1, which Potency is on record?
Its Potency is inconclusive: 28.2 µM [inhibitor, full curve, poor fit].

For O=C1NCCC[C@@H]1NC(=O)[C@H]1CN(C(=O)c2cccs2)CCN1C(=O)c1cccs1, which “activity change, negative = cytotoxicity” value is on record?
Its value is inactive: -13.3%.

For CN1CCCCCC(O)c2cc(C(=O)NCC3CC3)ccc21 (stereo not given), which “activity change, negative = cytotoxicity” value is on record?
Its value is inactive: -15.6%.

With O=C(c1ccccc1F)N1CCCC2(CNc3ncccc3[S+](=O)([O-])N2)C1 (stereo not given) as the compound, how does the “outcome” value read?
Its value is “inactive”.

For N#Cc1ccc(CN2CCC(c3nc4ccc(F)cc4c(=O)[nH]3)CC2)cc1, which “activity change, negative = cytotoxicity” value is on record?
Its value is inactive: -28.9%.

For CCC1=C(C(=O)OC)C(c2ccc(C)cc2C)N2C(CC(=O)Nc3ccc(OC)cc3)=CSC2=N1 (stereo not given), which Potency is on record?
The Potency was active: 44.7 µM.

Which “activity change, negative = cytotoxicity” value does the source give for Cc1nc(CCNC(=O)C2CC2)no1 here?
Its value is inactive: 5.68%.

With CC(=O)N1CC2(CCN(Cc3ccc(Cl)cc3)CC2)Cc2ccccc21 as the compound, how does the Potency read?
Its Potency is inconclusive: 50.1 µM [inhibitor, partial curve, poor fit].

With O=C1c2cnc(-c3ccc(Oc4ccccc4)cc3)nc2OCCN1CC1CC1 as the compound, how does the Potency read?
Its Potency is inconclusive: 20 µM [inhibitor, full curve, poor fit].

Which “activity change, negative = cytotoxicity” value does the source give for CN(C)C(=O)c1nc2cccnc2n(CCc2ccccc2)c1=O here?
The value was inactive: -0.0856% [at 172 µM].

For CCCN1CCC2(CCN([S+](=O)([O-])c3ccccc3)CC2)Oc2ccccc21, which Potency is on record?
The Potency was inconclusive: 39.8 µM [inhibitor, full curve].

With COc1cccc(Nc2ccc3c(n2)C(C)(C(=O)NC2CCC2)CN(C)C3)c1 (stereo not given) as the compound, how does the Potency read?
The Potency was inconclusive: 100 µM [inhibitor, partial curve, poor fit].

Which “activity change, negative = cytotoxicity” value does the source give for CC(=O)N1CCC2(CC1)CC(c1cccc(C(F)(F)F)c1)=NO2 here?
The value was inactive: -6.11% [at 172 µM].

Which Potency does the source give for Cc1ccc(NC(=O)N2CCCC(Cn3cnc4cccnc43)C2)c(Cl)c1 (stereo not given) here?
Its Potency is inconclusive: 28.2 µM [inhibitor, full curve].

Which “activity change, negative = cytotoxicity” value does the source give for O=C(Cc1ccccc1F)Nc1ccc2c(c1)CN(C(=O)[C@H]1CCCN1)CC2 here?
The value was inactive: -3.57%.

For COC(=O)c1nc(NC(=O)Cn2nc3c(cc2=O)CCCCC3)sc1C(C)C, which Potency is on record?
The Potency was inconclusive: 28.2 µM [inhibitor, partial curve].

For O=[S+]1([O-])NCC2(CCN(CC3CCCCC3)CC2)Nc2ccccc21, which Potency is on record?
Its Potency is inconclusive: 8.91 µM [inhibitor, full curve, poor fit].

With Cc1ccc(CNC(=O)N2C[C@@H](Oc3cccnc3)C[C@H]2C(=O)N2CCOCC2)cc1 as the compound, how does the “activity change, negative = cytotoxicity” value read?
The value was inactive: -11.8%.

Which Potency does the source give for Cc1nn(C)c2nc(-c3ccccn3)nc(NCC(c3ccco3)N(C)C)c12 (stereo not given) here?
Its Potency is active: 28.2 µM.

With O=C1[C@@H]2C[C@@H](CN2Cc2ccc(Cl)cc2)Oc2ccccc2N1Cc1ccccc1 as the compound, how does the Potency read?
Its Potency is active: 63.1 µM.

With C#CCNC(=O)C[C@@H]1O[C@H](CNC(C)=O)[C@@H](O)[C@H]1O as the compound, how does the “outcome” value read?
Its value is “inactive [at 230 µM]”.

Which “activity change, negative = cytotoxicity” value does the source give for COc1cccc(CCC(=O)N2CCCC(c3nnnn3-c3ccccc3)C2)c1 (stereo not given) here?
Its value is inactive: -22.4%.

Which Potency does the source give for c1ccc(CN2CCC(Oc3cnc4c(ccn4-c4cncnc4)c3)CC2)cc1 here?
The Potency was active: 100 µM.

For CN(CC(=O)NCCc1noc(-c2cccnc2)n1)S(=O)(=O)c1cccs1, which “activity change, negative = cytotoxicity” value is on record?
The value was inactive: 2.56%.

Which Potency does the source give for O=C(c1ccncc1)N1CCCC(CCc2ccc(F)cc2)C1 (stereo not given) here?
Its Potency is active: 39.8 µM.

Which Potency does the source give for Cn1cc(CN2CCNc3cnc(-c4ccccc4)cc3C2)cn1 here?
The Potency was inconclusive: 56.2 µM [inhibitor, partial curve, poor fit].

Which “activity change, negative = cytotoxicity” value does the source give for O=C(O)CCn1ncc2cc(OCC3CCN(C(=O)Oc4ccccc4Cl)CC3)ccc21 here?
The value was inactive: -25.1%.

With COc1ccc(CN2Cc3cc(NC(=O)c4ccc5c(c4)OCO5)ccc3OC(C)C2=O)cc1 (stereo not given) as the compound, how does the Potency read?
Its Potency is active: 22.4 µM.

With O=C(NC1CCCN(c2cc(-c3ccc(F)cc3)[nH]n2)C1)c1cccc(F)c1 (stereo not given) as the compound, how does the Potency read?
Its Potency is active: 31.6 µM.

For CC1(c2noc(C3CCOCC3)n2)CCN(Cc2c(F)cccc2Cl)CC1, which “activity change, negative = cytotoxicity” value is on record?
Its value is inactive: -21.5%.

Which “activity change, negative = cytotoxicity” value does the source give for CC1=C[C@@H](CNC(=O)CC(C)(C)CC(=O)O)[C@H](C(C)C)C[C@H]1Cc1nc2ncccc2[nH]1 here?
Its value is inactive: -11%.

With COCC(=O)NC1CCN(Cc2cccc(-c3cccs3)c2)CC1 as the compound, how does the Potency read?
The Potency was inconclusive: 112 µM [inhibitor, partial curve, poor fit] and inconclusive: 89.1 µM [inhibitor, single point].

With COc1ccccc1CC(=O)N1CCCc2ncc(C(=O)Nc3ccc4[nH]ccc4c3)cc21 as the compound, how does the Potency read?
The Potency was inconclusive: 100 µM [inhibitor, partial curve, poor fit].

For COc1ccc(NC(=O)CCC2CCN(S(=O)(=O)c3ccc(C)cc3)CC2)cc1F, which “activity change, negative = cytotoxicity” value is on record?
The value was inactive: -5.83%.

Which Potency does the source give for O=C(CCn1cc(Cl)cn1)N1CCOC(c2ccc(Cl)cc2)C1 (stereo not given) here?
Its Potency is active: 79.4 µM.
